Measured values reported in article PMC10082178, “Divalent nanobodies to platelet CLEC-2 can serve as agonists or antagonists” (Communications Biology, 2023).

Experiments:
[1] = target: the molecule itself; assay: native gel or EMSA; SMA-PAGE: whole cell SMALPs of resting human platelets (2.5% SMA, NaCl to 500 mM) on native Tris-Glycine gels, western blot with anti-αIIb or anti-CLEC-2 AYP2
[2] = target: the molecule itself; assay: fluorescence correlation spectroscopy with photon counting histogram analysis; eGFP-tagged receptors on the plasma membrane of transfected HEK293T cells (100 ng CLEC-2-eGFP, 500 ng CD28-eGFP or 100 ng CD86-eGFP DNA); molecular brightness compared with monomer and dimer controls; 25 °C
[3] = target: the molecule itself; assay: fluorescence correlation spectroscopy with photon counting histogram analysis; HEK293T cells transfected with increasing CLEC-2-eGFP DNA (50, 100 or 500 ng); molecular brightness against expression

Protein	stoichiometry N [1]	stoichiometry N [2]	molecular brightness, fold over monomeric CD86 [3] [fold]
CLEC-2 of human platelets (receptor, C-type lectin-like receptor 2 (CLEC-2), endogenous glycosylated receptor of human platelets; also called platelet CLEC-2; source: endogenous, resting human platelets; extracted in styrene maleic acid lipid particles (SMALPs) for SMA-PAGE; on washed platelets for aggregometry) not shown	2		
N-terminal eGFP-tagged human CLEC-2 (CLEC-2-eGFP) (receptor, C-type lectin-like receptor 2 (CLEC-2), human; eGFP joined through a linker to the cytosolic N-terminus; also called C-type lectin-like receptor 2; source: HEK293T, transiently transfected (PEI), on cells; DT40 chicken B cells, electroporated, for the NFAT reporter assay; not shown: eGFP (A206K), N-terminal, kept) MQDEDGYITLNIKTRKPALISVGSASSSWWRVMALILLILCVGMVVGLVALGIW[about 200 residues omitted here]		2	2.3
